This is one part of the list. These are noisy estimates, calculated here from bound and input reads.
Biological target: T1, Pho4 (S. cerevisiae) (UniProt P07270)
T1 sequence: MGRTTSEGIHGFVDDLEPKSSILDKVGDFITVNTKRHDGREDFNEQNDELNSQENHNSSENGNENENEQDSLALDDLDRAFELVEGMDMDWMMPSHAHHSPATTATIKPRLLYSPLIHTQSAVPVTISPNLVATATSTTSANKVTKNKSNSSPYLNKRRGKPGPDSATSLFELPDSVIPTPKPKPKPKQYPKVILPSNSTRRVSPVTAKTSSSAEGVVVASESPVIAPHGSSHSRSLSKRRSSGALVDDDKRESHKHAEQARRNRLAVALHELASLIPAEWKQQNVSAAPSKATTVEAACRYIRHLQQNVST
Assay: relative binding free energy (BET-seq); higher = weaker binding
Conditions: reference: library average

Row | Sequence | relative binding free energy
1 | GGCGGCACGTGGGCTG | -0.23 kcal/mol
2 | CAAGGCACGTGCGGGG | -0.18 kcal/mol
3 | GATTGCACGTGCGTTG | -0.04 kcal/mol
4 | TTAATCACGTGAAGGG | 0.29 kcal/mol
5 | TGATGCACGTGTCTTA | -0.05 kcal/mol
6 | TGTGACACGTGCTTTT | -0.01 kcal/mol
7 | GGTTGCACGTGTGAAA | 0.18 kcal/mol
8 | AGTGTCACGTGGCGGG | -0.01 kcal/mol
9 | TCGCTCACGTGGGTGA | 0.15 kcal/mol
10 | CTAATCACGTGTGGAG | 0.3 kcal/mol
11 | AAGTACACGTGAGTTT | 0.36 kcal/mol
12 | CGAAACACGTGTAGGG | 0.09 kcal/mol
13 | ATACACACGTGGGGTT | -0.09 kcal/mol
14 | GATAGCACGTGGCGGG | -0.15 kcal/mol
15 | TTCGTCACGTGTGATA | -0.04 kcal/mol
16 | GTAGGCACGTGACGGG | -0.02 kcal/mol
17 | AGGAGCACGTGGCGGG | -0.13 kcal/mol
18 | TACGGCACGTGGGTTG | -0.17 kcal/mol
19 | TTTTACACGTGACTTG | 0.27 kcal/mol
20 | AGGAGCACGTGAAAGG | 0.2 kcal/mol
21 | CTTAACACGTGGATGT | -0.04 kcal/mol
22 | GTTGTCACGTGTTGGG | 0.24 kcal/mol
23 | GTCTTCACGTGTGTGT | 0.31 kcal/mol

Row | Sequence | relative binding free energy
24 | GATTGCACGTGATATG | 0.06 kcal/mol
25 | AGTGTCACGTGGCGAG | -0.06 kcal/mol
26 | GGCTTCACGTGCGGGT | 0.27 kcal/mol
27 | TAATTCACGTGAATGG | 0.46 kcal/mol
28 | GGGGGCACGTGATTTG | 0.14 kcal/mol
29 | TTTGTCACGTGCCGGT | -0.05 kcal/mol
30 | TTGGCCACGTGTGGAT | -0.01 kcal/mol
31 | GTAGTCACGTGTGTAG | 0.15 kcal/mol
32 | GGGGACACGTGGGTTG | -0.14 kcal/mol
33 | GGGTTCACGTGAGTGC | 0.4 kcal/mol
34 | AGATTCACGTGTGCAT | 0.18 kcal/mol
35 | GGGTACACGTGTCGTG | 0.15 kcal/mol
36 | GCGTGCACGTGTGGAT | 0.08 kcal/mol
37 | TTAGGCACGTGATTTA | 0 kcal/mol
38 | TGTGTCACGTGAGAAA | 0.35 kcal/mol
39 | AGTGCCACGTGAATGT | 0.15 kcal/mol
40 | ATAACCACGTGGGTGG | -0.19 kcal/mol
41 | TGGCACACGTGGCTGT | 0.03 kcal/mol
42 | CGTGGCACGTGTAGAG | -0.02 kcal/mol
43 | TCTGACACGTGGTTTG | 0.03 kcal/mol
44 | CGGGGCACGTGGTTCA | -0.09 kcal/mol
45 | GTGAGCACGTGGAAGT | 0.1 kcal/mol
46 | GGGGACACGTGCGGGT | 0.07 kcal/mol

Row | Sequence | relative binding free energy
47 | GCGAGCACGTGGGGTT | -0.23 kcal/mol
48 | TCTGGCACGTGCGGGG | -0.11 kcal/mol
49 | TGAAACACGTGCGTGG | -0.16 kcal/mol
50 | TAATGCACGTGCTTTG | -0.08 kcal/mol
51 | GACGGCACGTGGTGGT | 0.03 kcal/mol
52 | TCTGTCACGTGCGGGG | 0.05 kcal/mol
53 | TTAGGCACGTGGGGTG | -0.24 kcal/mol
54 | GATGGCACGTGTTCGA | -0.1 kcal/mol
55 | ATTTGCACGTGAACGT | 0.12 kcal/mol
56 | TTGCGCACGTGTATGT | -0.16 kcal/mol
57 | TTAGGCACGTGAGTAT | 0.26 kcal/mol
58 | TGCTACACGTGGTGTG | -0.05 kcal/mol
59 | GGTTACACGTGTGCTG | 0.14 kcal/mol
60 | ATGAGCACGTGTATGG | -0.05 kcal/mol
61 | ATAAGCACGTGTAGTG | -0.07 kcal/mol
62 | TCTTACACGTGTATTT | 0.14 kcal/mol
63 | GCGTGCACGTGCTGGG | -0.07 kcal/mol
64 | TTGTTCACGTGCGGGG | 0.25 kcal/mol
65 | GGACTCACGTGAGTGT | 0.22 kcal/mol
66 | TGATCCACGTGTTGGT | 0.01 kcal/mol
67 | TTGTACACGTGCAAGG | 0.1 kcal/mol
68 | GTACTCACGTGCGGGG | 0.2 kcal/mol
69 | GGTTGCACGTGTTTCG | 0.17 kcal/mol

Row | Sequence | relative binding free energy
70 | AGAGCCACGTGGGTGG | -0.26 kcal/mol
71 | GTAGTCACGTGGGGCT | 0.01 kcal/mol
72 | TTTATCACGTGAAGTA | 0.31 kcal/mol
73 | TGGTTCACGTGGAGCG | 0.16 kcal/mol
74 | GATTTCACGTGGTAAG | 0.29 kcal/mol
75 | ACTAGCACGTGTGTTT | -0.01 kcal/mol
76 | GTGTACACGTGGAAGG | 0.2 kcal/mol
77 | AATGGCACGTGCGAGT | -0.01 kcal/mol
78 | ATAGACACGTGACGGG | 0.06 kcal/mol
79 | ACCATCACGTGGGGGG | 0.03 kcal/mol
80 | TTTTTCACGTGTTGAT | 0.33 kcal/mol
81 | TGGTTCACGTGGAAAA | 0.29 kcal/mol
82 | GAGCGCACGTGGGGTG | -0.21 kcal/mol
83 | GGTGCCACGTGTTTTT | 0.11 kcal/mol
84 | AGGGGCACGTGGGGCG | -0.19 kcal/mol
85 | TTGAACACGTGGTTCG | -0.14 kcal/mol
86 | GAGATCACGTGGGCGT | 0.27 kcal/mol
87 | TCTGACACGTGATGTT | 0.04 kcal/mol
88 | TTCAGCACGTGGTGGA | -0.05 kcal/mol
89 | GGCTTCACGTGGGAAT | 0.26 kcal/mol
90 | CTTTGCACGTGTATTG | 0.07 kcal/mol
91 | ATGATCACGTGTTGGG | 0.18 kcal/mol
92 | ATGTACACGTGCTGTC | 0.17 kcal/mol

Row | Sequence | relative binding free energy
93 | TTTCGCACGTGACTGG | 0.07 kcal/mol
94 | AGTATCACGTGGATGT | 0.18 kcal/mol
95 | GGAGACACGTGAGGTA | 0.19 kcal/mol
96 | TCGATCACGTGTTTTG | 0.01 kcal/mol
97 | GAGGTCACGTGCGAGT | 0.25 kcal/mol
98 | GTTAGCACGTGCGGAG | 0.01 kcal/mol
99 | AGATACACGTGATTGG | 0.16 kcal/mol
100 | TATTACACGTGCGTTA | 0.07 kcal/mol
101 | GGGGACACGTGGAGCT | 0.08 kcal/mol
102 | GCGGGCACGTGGTCAT | -0.15 kcal/mol
103 | TGTGCCACGTGATAAG | 0.21 kcal/mol
104 | TTGGTCACGTGAGGAC | 0.11 kcal/mol
105 | TTAGTCACGTGCTGGG | 0.13 kcal/mol
106 | ATTGGCACGTGAATAA | 0.09 kcal/mol
107 | GGAGGCACGTGGGCGG | -0.22 kcal/mol
108 | GGAGGCACGTGTAGAA | -0.02 kcal/mol
109 | GTGGCCACGTGTAAGT | 0.04 kcal/mol
110 | TGTGCCACGTGGCAGG | -0.05 kcal/mol
111 | AATTCCACGTGGGGGA | -0.02 kcal/mol
112 | TAAAGCACGTGGTGAT | -0.07 kcal/mol
113 | TTAGGCACGTGCTGAA | -0.06 kcal/mol
114 | TAGGACACGTGGTTGT | 0.01 kcal/mol
115 | CAGGGCACGTGCGATG | -0.07 kcal/mol

Reference: the BET-seq Pho4 binding data (Le et al. 2018)
